Assay results reported in paper PMC4336329 (PLoS ONE, 2015).
Screen size: about 310,000 compounds; about 14,000 (4.5%) showed an effect of 50% or more. Effects have a minus sign here. This is one part of the list.

Target: human ether-à-go-go-related gene (hERG) potassium channel (human, UniProt Q12809)
Experiment: primary screen, population patch clamp on CHO cells stably expressing hERG
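Note: peak tail current of the secondary pulse compared with the same well before compound.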

Chain of human ether-à-go-go-related gene (hERG) potassium channel (Q12809 whole entry, looked up): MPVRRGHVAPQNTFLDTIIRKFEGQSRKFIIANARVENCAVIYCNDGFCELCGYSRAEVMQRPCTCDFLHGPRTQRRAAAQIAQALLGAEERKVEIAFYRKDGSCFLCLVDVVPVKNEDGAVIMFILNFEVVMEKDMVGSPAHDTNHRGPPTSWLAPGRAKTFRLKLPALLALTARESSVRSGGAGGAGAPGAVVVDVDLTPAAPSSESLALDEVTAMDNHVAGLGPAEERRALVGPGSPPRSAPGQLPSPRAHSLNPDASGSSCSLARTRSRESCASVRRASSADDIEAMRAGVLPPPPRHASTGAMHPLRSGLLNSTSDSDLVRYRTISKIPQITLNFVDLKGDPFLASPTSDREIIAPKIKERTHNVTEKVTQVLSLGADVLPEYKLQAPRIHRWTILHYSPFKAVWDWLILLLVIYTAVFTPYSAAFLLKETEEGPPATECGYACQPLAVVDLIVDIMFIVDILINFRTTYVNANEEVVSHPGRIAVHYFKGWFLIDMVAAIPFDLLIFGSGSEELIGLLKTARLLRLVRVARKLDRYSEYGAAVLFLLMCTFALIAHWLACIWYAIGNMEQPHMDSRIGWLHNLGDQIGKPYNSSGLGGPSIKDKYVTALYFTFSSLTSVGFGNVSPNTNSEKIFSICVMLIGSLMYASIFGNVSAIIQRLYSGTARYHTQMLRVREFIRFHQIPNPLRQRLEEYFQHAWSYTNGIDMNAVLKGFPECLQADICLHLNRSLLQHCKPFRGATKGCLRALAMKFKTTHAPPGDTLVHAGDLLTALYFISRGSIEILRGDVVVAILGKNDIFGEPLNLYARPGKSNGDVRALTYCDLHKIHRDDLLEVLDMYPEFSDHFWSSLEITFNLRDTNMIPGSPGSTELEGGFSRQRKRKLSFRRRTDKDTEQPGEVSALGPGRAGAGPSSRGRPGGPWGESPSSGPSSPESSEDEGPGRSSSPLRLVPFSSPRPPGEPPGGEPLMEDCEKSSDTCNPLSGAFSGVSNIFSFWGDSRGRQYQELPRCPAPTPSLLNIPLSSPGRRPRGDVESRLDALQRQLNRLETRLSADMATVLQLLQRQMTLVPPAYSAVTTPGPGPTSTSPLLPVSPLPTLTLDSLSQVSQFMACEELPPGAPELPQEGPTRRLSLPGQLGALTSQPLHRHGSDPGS

Compared with `CC(C)N(CCO)C(=O)C(c1ccccc1)c1ccccc1`, `CC(C)(CO)CNC(=O)CC1C(=O)NCCN1CC(c1ccccc1)c1ccccc1` (stereo not shown) is higher in “hERG current change (%, negative = inhibition) at 10uM” value: 1.24% for the first, 23.3% for the second.

Going from `CC1NC(=O)N(C)[C@@H]2NC(=O)N(C)C(c3ccc([N+](=O)[O-])cc3)[C@@H]12` (stereo partly shown) to `Cc1ccc([N+](=O)[O-])cc1S(=O)(=O)N1CCNCC1`, the “hERG current change (%, negative = inhibition) at 10uM” value rises from 7.29% to 12.3%.

Going from `CSCCC(NC(=O)c1ccco1)C(=O)N1CCN(Cc2ccccc2)CC1` (stereo not shown) to `CCN1CCN(C(=O)CN2C(=O)c3ccccc3S2(=O)=O)CC1.Cl`, the “hERG current change (%, negative = inhibition) at 10uM” value rises from -30.6% to -7.48%.

Compared with `CC1(C)CC2CC(C)(CN2Cc2c(O)ccc3ccccc23)C1` (stereo not shown), `CCOc1ccccc1NC(=O)CN1CCC(C(=O)c2ccc(F)cc2)CC1` is higher in “hERG current change (%, negative = inhibition) at 10uM” value: -49.2% for the first, -20.9% for the second.

Going from `O=C(NCCC1=CCCCC1)c1cc(COc2c(F)cccc2F)on1` to `O=C(CC1CCCCC1)NCc1ccc(Cl)cc1`, the “hERG current change (%, negative = inhibition) at 10uM” value falls from 9.37% to 4.37%.

Going from `Cc1noc(C(=O)Nc2c(C)nn(Cc3ccccc3)c2C)c1Cl` to `COc1ccc(CNC(=O)c2cc(C)nc3ccccc23)cc1OC`, the “hERG current change (%, negative = inhibition) at 10uM” value rises from 4.71% to 8.87%.

First: Cc1ccc2nc(SCc3cn4c(C)cc(C)nc4n3)[nH]c2c1
Second: Cc1ccc2nc3n(c(=O)c2c1)-c1cc(Cl)ccc1C(=O)NC3Cc1ccccc1 (stereo not shown)
The “hERG current change (%, negative = inhibition) at 10uM” value of the first is lower: -20.9% for the first, 22% for the second.

Going from `COc1ccc(N(C)C2=NS(=O)(=O)c3ccccc32)cc1` to `COc1ccc(NC(=O)CN2C(=O)c3cccc4cccc2c34)c(OC)c1`, the “hERG current change (%, negative = inhibition) at 10uM” value falls from 6.85% to 3.07%.

First: Cc1cc(Cl)c(S(=O)(=O)N2CCN(c3ccccn3)CC2)cc1OCC(N)=O
Second: O=C(NCc1cccnc1)c1cccc(S(=O)(=O)N2CCCC2)c1
The “hERG current change (%, negative = inhibition) at 10uM” value of the first is higher: 17.6% for the first, -6.24% for the second.

Going from `COc1ccc(CN2CCNC(=O)C2CC(=O)NCc2cc(C)n(C)n2)c(F)c1` (stereo not shown) to `Cc1ccccc1CNC(=O)CCC(=O)N1CCOc2ccc(Cl)cc21`, the “hERG current change (%, negative = inhibition) at 10uM” value falls from 7.8% to -24.2%.

Going from `O=C(Nc1cccc(F)c1)C1CC(=O)N(c2ccc(Cl)cc2)C1` (stereo not shown) to `Cc1ccc(NC(=O)CN(C)C(=O)/C=C/c2cccc(F)c2)cc1`, the “hERG current change (%, negative = inhibition) at 10uM” value rises from -13.6% to -8.26%.

First: Nc1n[nH]c(-c2ccccc2)n1
Second: Cc1ccccc1C(=O)Nc1nc(-c2cccnc2)cs1
The “hERG current change (%, negative = inhibition) at 10uM” value of the first is lower: 2.6% for the first, 34.9% for the second.

Going from `CCc1cccc(CC)c1NC(=O)C(NS(=O)(=O)c1cccs1)c1ccccc1` (stereo not shown) to `O=C(NCc1ccccn1)c1ccccc1-c1ccccc1`, the “hERG current change (%, negative = inhibition) at 10uM” value falls from 7.4% to 3.96%.

Going from `O=C(CCN1C(=O)C2C3C=CC(C3)C2C1=O)NC1CCCCC1` (stereo not shown) to `COC(=O)NCN1C(=O)C2C3C=CC(C3)C2C1=O` (stereo not shown), the “hERG current change (%, negative = inhibition) at 10uM” value rises from 11.1% to 17.6%.

Going from `Cc1nn(C)cc1CNC(=O)C1CCC(=O)N(CC2CCCCC2)C1` (stereo not shown) to `CC(=O)c1cn(N2CCCCC2)c(=O)[nH]c1=O`, the “hERG current change (%, negative = inhibition) at 10uM” value rises from -8.4% to 19.6%.

Compared with `O=C1Nc2ccc(Br)cc2/C1=C/c1ccc(C(=O)O)cc1`, `Cc1ccc(S(=O)(=O)Nc2ccc(Cl)cc2C(=O)c2ccc(F)cc2)cc1` is lower in “hERG current change (%, negative = inhibition) at 10uM” value: 17.3% for the first, 1.36% for the second.

Compared with `O=C(NC1CCC(O)CC1)c1cc(-c2ccco2)nc2ccccc12` (stereo not shown), `O=C(COC(=O)CCc1nc2ccccc2s1)NCc1ccco1` is lower in “hERG current change (%, negative = inhibition) at 10uM” value: 10.5% for the first, 2.82% for the second.

Going from `CCCCCCN1C=CC(=C2C(=O)c3ccccc3C2=O)C=C1` to `COc1ccc(OCCN2C(=O)c3ccccc3C2=O)c([N+](=O)[O-])c1`, the “hERG current change (%, negative = inhibition) at 10uM” value falls from 10.5% to -25%.

Going from `Cc1ccccc1NC(=S)N(CCN(C)C)C(C)c1cccnc1` (stereo not shown) to `O=C(NCc1cccnc1)Nc1ccccc1`, the “hERG current change (%, negative = inhibition) at 10uM” value rises from -50.1% to 5.04%.

First: O=C(O)CCCCCCCCCC[n+]1ccccc1.[Br-]
Second: O=C(NCCCCNC(=O)c1ccccn1)c1ccccn1
The “hERG current change (%, negative = inhibition) at 10uM” value of the first is lower: 16% for the first, 21.2% for the second.

Compared with `O=C(CN1C(=O)/C(=C/c2ccc(C(F)(F)F)cc2)Sc2ccccc21)NCCCN1CCOCC1`, `O=C(COc1ccc(Cl)cc1)Nc1ccc(CN2CCOCC2)cc1` is higher in “hERG current change (%, negative = inhibition) at 10uM” value: -65.6% for the first, -39.6% for the second.

First: COC(=O)CC(NC(=O)c1ccc(C)cc1)c1ccc2c(c1)OCO2 (stereo not shown)
Second: Cc1cccc(C)c1NC(=O)CNC(=O)C(NC(=O)c1ccc(C(C)(C)C)cc1)C(C)C (stereo not shown)
The “hERG current change (%, negative = inhibition) at 10uM” value of the first is lower: 0.217% for the first, 14.4% for the second.

First: COc1ccc(C(O)Cc2nccn2C)cc1 (stereo not shown)
Second: COc1ccc(CNS(=O)(=O)CCNC(=O)c2ccc(OC)cc2)cc1
The “hERG current change (%, negative = inhibition) at 10uM” value of the first is higher: -1.22% for the first, -29.3% for the second.

Compared with `CCc1nc(SCC(=O)NCCc2ccc(OC)c(OC)c2)c2c(=O)n(C)c(=O)n(C)c2n1`, `Cc1ccc2c(c1)N(CCC(=O)NCCCOC(C)C)C(=O)C(C)O2` (stereo not shown) is higher in “hERG current change (%, negative = inhibition) at 10uM” value: -5.53% for the first, -0.496% for the second.

First: CCOc1ccc(NC(=O)C2C3c4ccccc4C(c4ccccc43)C2C(=O)O)cc1 (stereo not shown)
Second: Cc1ccc(-c2csc(N(CCc3ccccc3)C(=O)COc3ccccc3)n2)cc1
The “hERG current change (%, negative = inhibition) at 10uM” value of the first is higher: 33.2% for the first, 15.1% for the second.

First: Cc1cccc(-n2c(CN3C(=O)c4ccccc4C3=O)nc3ccccc3c2=O)n1
Second: C/C(=N/NC(=O)c1cc2ccccc2cc1O)C1C(=O)c2ccccc2C1=O
The “hERG current change (%, negative = inhibition) at 10uM” value of the first is lower: 6.38% for the first, 25.2% for the second.

Going from `CCCNC(=O)C(=O)Nc1cc2c3c(c1)CCC(=O)N3CCC2` to `COc1cccc(NC(=O)Nc2ccc3c(c2)CCC3)c1`, the “hERG current change (%, negative = inhibition) at 10uM” value rises from -15.4% to 18.6%.

Compared with `O=C(O)c1ccccc1N=N/C(=N/Nc1cc(S(=O)(=O)[O-])ccc1O)c1ccccc1.[Na+]`, `CCCNC(=O)c1cnc(-c2ccccc2)nc1-c1ccccc1` is higher in “hERG current change (%, negative = inhibition) at 10uM” value: 10.5% for the first, 15.2% for the second.

Compared with `CC[C@H](C)C(C(=O)N1CCN(C(=O)OC(C)(C)C)CC1)n1cc(C(CC(C)C)NC(=O)OC(C)(C)C)nn1` (stereo partly shown), `CC(C)(C)c1ccc(C(=O)NCCCN2CCN(CCCNC(=O)c3ccc(C(C)(C)C)cc3)CC2)cc1` is lower in “hERG current change (%, negative = inhibition) at 10uM” value: -0.263% for the first, -63.6% for the second.

First: Cc1cc(C(=O)N2C(C)CCCC2C)no1 (stereo not shown)
Second: C=CCc1ccc(OCC(O)CN2CCCCC2C)c(OC)c1.Cl (stereo not shown)
The “hERG current change (%, negative = inhibition) at 10uM” value of the first is higher: 6.13% for the first, -55.1% for the second.

Going from `Cc1nn(C(C)c2n[nH]c(=S)n2-c2cccc(Cl)c2)c(C)c1[N+](=O)[O-]` (stereo not shown) to `CCOC(CNC(=O)c1cccn2c(=O)c3cc(Cl)ccc3nc12)OCC`, the “hERG current change (%, negative = inhibition) at 10uM” value falls from 13.4% to -7.16%.

First: CCOc1c(Cl)cc(CNc2ccc(S(N)(=O)=O)cc2)cc1OC
Second: Cc1ccc(S(=O)(=O)NCCC(=O)Nc2ccc(Cl)c(Cl)c2)cc1
The “hERG current change (%, negative = inhibition) at 10uM” value of the first is lower: -3.11% for the first, 15.9% for the second.

First: Cc1sc2ncnc(N3CCC(C(=O)NNC(=O)c4ccc(F)cc4)CC3)c2c1C
Second: O=C(Nc1ccncc1)c1ccc(F)cc1
The “hERG current change (%, negative = inhibition) at 10uM” value of the first is lower: -21.9% for the first, 0.865% for the second.

Compared with `O=C1NNC(c2ccccc2)=N/C1=C\c1ccccc1`, `S=c1[nH]nc(-c2ccccn2)n1/N=C/c1ccc(-c2ccccc2Cl)o1` is higher in “hERG current change (%, negative = inhibition) at 10uM” value: -6.08% for the first, 20.5% for the second.

Compared with `Cc1c[nH]c2cccc(OCC(O)CNC(C)(C)C)c12.Cl` (stereo not shown), `COc1cccc(CNCCO)c1OCc1ccccc1.Cl` is higher in “hERG current change (%, negative = inhibition) at 10uM” value: -8.91% for the first, -1.31% for the second.

First: CN(C)C=O.O=C(OCC(=O)N1CCCc2ccccc21)C1CCN(S(=O)(=O)c2cccs2)CC1
Second: COc1cccc(NC(=O)CCNS(=O)(=O)c2ccc3c(c2)CC(C)N3C(=O)C2CC2)c1 (stereo not shown)
The “hERG current change (%, negative = inhibition) at 10uM” value of the first is lower: -71.1% for the first, -5.18% for the second.

Compared with `NC(=NC(=O)c1ccccc1)N1CCOCC1`, `O=C(CCS(=O)(=O)Cc1ccccc1)NCC1CCCO1` (stereo not shown) is higher in “hERG current change (%, negative = inhibition) at 10uM” value: -8.78% for the first, 8.35% for the second.

First: Cc1c(C#N)c(O)n(CCO)c(=O)c1N=Nc1ccccc1
Second: CCc1nc2sc3ccccc3c(=O)c2c(=O)n1Cc1ccco1
The “hERG current change (%, negative = inhibition) at 10uM” value of the first is higher: -1.05% for the first, -8.27% for the second.

Going from `Cc1ccc(CCNC(=O)C23CN(Cc4ccccc4)CC2C(c2ccc([N+](=O)[O-])cc2)=NO3)cc1` (stereo not shown) to `O=C(O)[C@H]1CCCC[C@H]1C(=O)NCCc1ccccc1`, the “hERG current change (%, negative = inhibition) at 10uM” value rises from -24% to -6.25%.

First: CCOC(=O)c1cn(CC(=O)Nc2cccc(F)c2)nn1
Second: COCCCn1cnnc1SCC(=O)Nc1ccc(S(=O)(=O)N2CCCC2)cc1
The “hERG current change (%, negative = inhibition) at 10uM” value of the first is lower: -10.3% for the first, 12.9% for the second.

First: COC(=O)Cc1ccc(NC(=S)NC2CC2)cc1
Second: CCC(C)Sc1cc(C(F)(F)F)c(C(=O)Nc2ccc(Cl)cc2)cn1 (stereo not shown)
The “hERG current change (%, negative = inhibition) at 10uM” value of the first is lower: 6.3% for the first, 8.43% for the second.

First: CN(C)S(=O)(=O)c1ccc2oc(SCC(=O)NCC(F)(F)F)nc2c1
Second: CCN(CC)C(=O)Cn1cnc2sc(C(=O)NCCCN3CCOCC3)c(C)c2c1=O
The “hERG current change (%, negative = inhibition) at 10uM” value of the first is lower: -4.61% for the first, 20.1% for the second.

First: O=C1CSC(c2ccccc2Cl)N1 (stereo not shown)
Second: O=c1oc(-c2cccs2)nc2ccc(Cl)cc12
The “hERG current change (%, negative = inhibition) at 10uM” value of the first is lower: 17% for the first, 21.4% for the second.

First: COCCNC(=O)c1csc2c1CCCC2
Second: N#Cc1c[nH]n2c(=O)c3c(nc12)CCC3
The “hERG current change (%, negative = inhibition) at 10uM” value of the first is lower: -0.457% for the first, 13.9% for the second.

Compared with `O=C(NCCCN1CCOCC1)c1cc(C(=O)C2CC2)c[nH]1`, `O=C(NCc1ccccc1)C(c1cccnc1)N(Cc1ccco1)C(=O)c1ccccn1` (stereo not shown) is lower in “hERG current change (%, negative = inhibition) at 10uM” value: 21.5% for the first, -9.79% for the second.

For `CC(C)CNCC1OCc2ccccc2CO1.Cl`, the “hERG current change (%, negative = inhibition) at 10uM” value was 13.6%.
